In PMC4336329 (PLoS ONE, 2015):
Hit rate of the full screen: of about 310,000 compounds, about 2,200 (0.71%) showed an effect of 50% or more. Effects have a minus sign here. Some of the results follow.

Biological target: human ether-à-go-go-related gene (hERG) potassium channel (human, UniProt Q12809)
Assay: primary screen, population patch clamp on CHO cells stably expressing hERG

Sequence of human ether-à-go-go-related gene (hERG) potassium channel (Q12809 whole entry, looked up): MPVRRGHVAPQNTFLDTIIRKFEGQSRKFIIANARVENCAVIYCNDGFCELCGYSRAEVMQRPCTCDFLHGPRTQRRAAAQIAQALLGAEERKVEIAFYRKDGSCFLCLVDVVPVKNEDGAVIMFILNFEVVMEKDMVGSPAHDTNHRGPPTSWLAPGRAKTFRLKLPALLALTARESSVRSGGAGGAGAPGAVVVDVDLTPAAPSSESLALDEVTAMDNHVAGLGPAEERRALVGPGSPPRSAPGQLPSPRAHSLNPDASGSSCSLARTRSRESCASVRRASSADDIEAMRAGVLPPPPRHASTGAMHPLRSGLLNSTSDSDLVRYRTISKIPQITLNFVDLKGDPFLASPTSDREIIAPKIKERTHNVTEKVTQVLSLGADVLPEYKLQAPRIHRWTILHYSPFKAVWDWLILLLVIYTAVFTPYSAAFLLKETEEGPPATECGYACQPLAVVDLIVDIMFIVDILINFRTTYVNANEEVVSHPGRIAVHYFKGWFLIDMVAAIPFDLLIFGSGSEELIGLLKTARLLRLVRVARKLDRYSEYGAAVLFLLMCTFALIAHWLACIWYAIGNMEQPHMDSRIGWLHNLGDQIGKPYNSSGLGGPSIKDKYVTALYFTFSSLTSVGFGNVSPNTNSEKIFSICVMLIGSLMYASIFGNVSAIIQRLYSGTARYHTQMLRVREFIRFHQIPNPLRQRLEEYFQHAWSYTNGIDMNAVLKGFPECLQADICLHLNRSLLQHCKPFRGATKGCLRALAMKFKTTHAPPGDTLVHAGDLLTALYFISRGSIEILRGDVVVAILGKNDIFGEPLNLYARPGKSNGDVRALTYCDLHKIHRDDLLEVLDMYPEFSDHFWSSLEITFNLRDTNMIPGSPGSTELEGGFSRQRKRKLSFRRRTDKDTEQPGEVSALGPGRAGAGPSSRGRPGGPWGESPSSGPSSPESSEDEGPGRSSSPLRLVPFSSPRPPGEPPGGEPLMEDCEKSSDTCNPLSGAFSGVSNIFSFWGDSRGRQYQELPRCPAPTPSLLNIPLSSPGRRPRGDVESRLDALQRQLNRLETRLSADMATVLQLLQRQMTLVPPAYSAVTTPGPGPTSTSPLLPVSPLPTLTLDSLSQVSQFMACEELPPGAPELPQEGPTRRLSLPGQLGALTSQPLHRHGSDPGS

Row | SMILES | hERG current change (%, negative = inhibition) at 1uM [%]
1 | COc1cccc(NC(C)(C)c2nnnn2-c2c(C)cccc2C)c1 | -16.4
2 | O=C(CSc1nccc(-c2cccs2)n1)Nc1cccc(Cl)c1 | 8.96
3 | C#CCn1c(=NC(=O)c2cc(-c3cccs3)nc3ccccc23)sc2cc(S(N)(=O)=O)ccc21 | 10.9
4 | CCCn1c(C)cc(C(=O)COC(=O)c2cc(S(=O)(=O)NCC(C)C)c(Cl)cc2Cl)c1C | 3.71
5 | CCCCN(C(=O)CSc1nnc(-c2ccc(Cl)cc2)o1)c1c(N)n(CC(C)C)c(=O)[nH]c1=O | 5.4
6 | CCOC(=O)Cc1csc(NC(=O)Nc2ccccc2)n1 | 8.05
7 | CC(C(=O)OCC(=O)c1c(N)n(C)c(=O)n(C)c1=O)N1C(=O)c2ccccc2C1=O (centres unmarked) | 2.68
8 | CCOC(=O)C1CCCCN1Cc1cc(Cl)ccc1O (centres unmarked) | 4.99
9 | CCOC(=O)c1cc(-c2ccccc2)nn1-c1ccccn1 | -6.29
10 | CCc1nc(SCC(=O)O)c(C#N)cc1C | 10.7
11 | N#Cc1c(N)n(CCNC(=O)c2ccc(Cl)cc2)c2nc3ccccc3nc12 | 15.6
12 | O=C1CC2CS(=O)(=O)CC2N1c1ccc(Cl)cc1Cl (centres unmarked) | 7.74
13 | Oc1ccc(-c2csc(Nc3ccccn3)n2)cc1 | 14.1
14 | O=c1cc(-c2ccccc2)nc(SCc2ccc(F)cc2)[nH]1 | 6.34
15 | Nc1nc(COc2ccc(F)cc2Cl)nc(N2CCCCC2)n1 | 10.5
16 | COc1cccc(-c2csc(N3CCN(C(=S)Nc4ccc(Cl)cc4)CC3)n2)c1 | 10.6
17 | Cc1ccccc1NC(=O)CSc1nnnn1C | 6.2
18 | CC(=O)c1cccc(OCc2cc(C(=O)N3CC4C[C@@H]5CC3C[C@H](C4)C5)no2)c1 | 10.7
19 | CN(C)c1oc(/C=C/c2cccs2)nc1S(=O)(=O)c1ccccc1 | 12.7
20 | Cc1ccc(CSCCC(=O)NCCc2ccc(Cl)cc2)cc1 | -0.998
21 | Cc1cc(C)cc(N(C(=O)c2csnn2)C(C(=O)NC2CCCCC2)c2cccnc2)c1 (centres unmarked) | 12.8
22 | CCNC(=S)NCc1ccc(OC)c(OC)c1 | 10.5
23 | FC(F)(F)c1cc(-c2ccco2)nc(N2CCN(c3ccccc3)CC2)n1 | 8.68

Row | SMILES | hERG current change (%, negative = inhibition) at 1uM [%]
24 | CSC1=C(C#N)C(c2ccc(C)s2)CC(=O)N1 (centres unmarked) | 2.6
25 | COc1ccc(CC(=O)Nc2ccc(NC(=O)c3ccc(Br)cc3)cc2)cc1OC | 14.3
26 | O=C(c1cc(=O)c2ccccc2o1)N(Cc1ccccc1)C1CCS(=O)(=O)C1 (centres unmarked) | 6.66
27 | CCn1c(SCc2ccc([N+](=O)[O-])cc2)nnc1C(C)NC(=O)c1ccc(C)cc1 (centres unmarked) | 0.444
28 | O=C(CN1N=C(c2ccccc2)CCC1=O)NCCCN1CCc2ccccc2C1 | -7.4
29 | CC(C)S(=O)(=O)c1csc(C(=O)NN)c1Cl | 3.32
30 | COc1ccc(C)cc1NC(=O)C(=O)NNC(=O)COc1ccc(Cl)cc1 | 13.4
31 | c1csc(-c2nc(N3CCCCC3)no2)c1 | 17.1
32 | COc1cc(NC(=S)N2CCCCC2C)c(OC)cc1Cl (centres unmarked) | 3.94
33 | Cc1ccc(S(=O)(=O)NCC(=O)N(CC(=O)NC2CCCCC2)CC2CCCO2)cc1 (centres unmarked) | 8.24
34 | Cc1nc(-c2ccc(Cl)cc2)sc1C(=O)CBr | 5.52
35 | CCCCN(C)C(=O)c1cc2c(Cl)nc3ccccc3c2s1 | 12.3
36 | O=C(c1c(F)cccc1F)N1CCCc2ccccc21 | 16.9
37 | Cc1ccccc1OCCC(=O)Nc1ccc(S(=O)(=O)N(C)C2CCN(C)CC2)cc1 | 20.4
38 | COc1ccc(CC(=O)N(C)Cc2ccc(C(C)(C)C)cc2)cc1S(=O)(=O)N1CCOCC1 | 5.58
39 | CCC1C(=O)N=C(SCC(=O)Nc2ccc(C)cc2)N(c2ccccc2)C1=O (centres unmarked) | 10.2
40 | COC(=O)CCC/C=C1\SC[C@@H](NC(=O)c2ccccc2)C1NC(C)=O (some centres unmarked) | 12.5
41 | CC(=O)NCCC(=O)N(Cc1ccccc1)c1nc2c(C)cccc2s1 | 7.17
42 | Cc1cc(NC(=O)CSc2nc3ccccc3c(=O)n2CCCC(=O)NCc2ccco2)n[nH]1 | 4.18
43 | CCn1c(C(O)c2ccccc2)nc2ccccc21 (centres unmarked) | 9.49
44 | Cl.c1ccc(CNc2nc3ccccc3n2CCN2CCOCC2)nc1 | 10.1
45 | COc1ccccc1NC(=O)COn1nnc2ccc(S(=O)(=O)N3CCOCC3)cc21 | 9.73
46 | O=C(CSc1n[nH]c(=O)[nH]c1=O)Nc1ccc(C(=O)O)cc1 | 12.8

Row | SMILES | hERG current change (%, negative = inhibition) at 1uM [%]
47 | c1cncc(-c2nc(NCc3cccs3)c3ccccc3n2)c1 | 8.51
48 | CC1(C)CC(C(CCN(Cc2ccccc2)C(=O)c2ccco2)c2ccc(F)cc2)CCO1 (centres unmarked) | 9.34
49 | Cc1cccc(C(=O)NC(=O)Nc2c(C)cc(C)nc2C)c1 | 17
50 | COc1ccc(NC(=O)C2CCCCN2S(=O)(=O)c2ccc(F)cc2)c(OC)c1 (centres unmarked) | -0.017
51 | COc1cc(C(=S)N2CCOCC2)ccc1OC(=O)c1cc(OC)c(OC)c(OC)c1 | 19.2
52 | COc1ccc(C(=O)Nc2ccncc2)c(OC)c1 | 14.4
53 | COc1ccccc1NC(=O)CSc1ccc2nnc(-c3ccccn3)n2n1 | 9.85
54 | COc1ccc(OC)c(-n2c(O)c(/C=C3\C=Nc4ccccc43)c(=O)[nH]c2=O)c1 | 11.8
55 | O=C(Nc1ccc(F)cc1)c1oc2ccccc2c1NC(=O)C1CC1 | 2.98
56 | COc1ccc([N+](=O)[O-])cc1N(CC(=O)NCCSc1ccc(C)cc1)S(C)(=O)=O | -1.7
57 | COc1ccccc1OCCSc1nc2ccccc2n1CCC(=O)O | 16.3
58 | CCOC(=O)C1CCCN(C(=O)c2cc(-c3ccc(C)cc3)on2)C1 (centres unmarked) | -59.7
59 | CCCC(=O)Nc1ccc(C(=O)Nc2nnc(COCC)s2)cc1 | 13.7
60 | O=C(Nc1ccc(O)cc1)c1cc2n(n1)C(C(F)(F)F)CC(c1ccco1)N2 (centres unmarked) | -1.55
61 | Cc1nnc(NC(=O)CSc2nnc(Cc3cccn3C)n2CCc2ccccc2)s1 | 3.48
62 | CC1CCCN(C(=O)C2CCN(S(=O)(=O)c3cccc4nonc34)CC2)C1 (centres unmarked) | 12.6
63 | Cc1nc(SCc2nc3ccccc3[nH]2)c2oc3ccccc3c2n1 | 14.9
64 | CC(=O)c1cc(-c2ccc(F)cc2)n(CC(=O)NCc2cccs2)c1C | -4.31
65 | COc1ccc(NC(=O)CN(C)CC(=O)Nc2ccc(Cl)c(S(=O)(=O)N(C)C)c2)cc1 | 0.0036
66 | CC1CN(S(=O)(=O)c2ccc(C(=O)Nc3nnc(-c4ccc5c(c4)CCCC5)o3)cc2)CC(C)O1 (centres unmarked) | 9.15
67 | Cc1nn(CC(=O)N2CCCCC2)c(=O)c2nn(-c3ccccc3)c(C)c12 | 14.2
68 | O=C(Cc1ccccc1Cl)NCc1cccnc1 | 18.6
69 | Nc1cc(C(F)(F)F)ccc1C(=O)O | 10.2

Row | SMILES | hERG current change (%, negative = inhibition) at 1uM [%]
70 | COc1cccc(CN2CCN(C(=O)c3cccc(OC)c3)CC2)c1.O=C(O)C(=O)O | 15.3
71 | CC(OC(=O)c1ccco1)C(=O)NC1CCCCC1 (centres unmarked) | 9.98
72 | COc1ccc(S(=O)(=O)NCc2ccncc2)cc1NC(=O)c1ccccc1C | -8.51
73 | Cc1cccc(C)c1OCc1cc(C(=O)N2CCCC2c2nonc2C)no1 (centres unmarked) | 8.29
74 | O=C(Nc1ncccc1O)c1ccc2ccccc2c1 | 19.9
75 | Cc1onc(-c2ccccc2)c1C(=O)N1CCC(C)CC1 | -2.72
76 | O=Nc1c(O)n(Cc2ccccc2)c2ccccc12 | 12.4
77 | COc1ccc(C)cc1NC(=O)c1nn(C)c(C(=O)Nc2cc(C)ccc2OC)c1[N+](=O)[O-] | 11.1
78 | O=C(Nc1ccc(NC(=O)c2ccccc2F)cn1)c1ccco1 | 13.5
79 | CN(C)Cc1c(C(=O)N/N=C/c2cccc(OCc3ccc(F)cc3)c2)nnn1-c1nonc1N | 14.9
80 | CCOC(=O)c1c(NC(=O)c2cccnc2)sc(C)c1C | -3.1
81 | Cc1ccc(CNC(=O)c2ccc([N+](=O)[O-])o2)cc1 | 8.8
82 | Nc1ccc(C(=O)Nc2nccs2)cc1 | 16.1
83 | CCOc1ccc(OCC)c(NC(=O)CN2CCN(C(=O)c3ccco3)CC2)c1 | -5.94
84 | OCCC1CN(Cc2ccon2)CCN1Cc1ccccc1 (centres unmarked) | 9.72
85 | Cc1ccsc1C(=O)OCC(=O)Nc1cccc(S(=O)(=O)N2CCOCC2)c1 | 0.283
86 | O=C(CSc1ccccc1)NCCCN1CCOCC1 | 8.44
87 | CCOC(=O)c1ccc(NC(=O)c2nc[nH]c2C(=O)NC)cc1 | 12.7
88 | O=C(CSCc1c(F)cccc1Cl)NCC1CCCO1 (centres unmarked) | -1.83
89 | CCC(C)(C)NC(=O)COc1ccc(OCc2ccccc2)cc1 | 9.73
